Measured values as given in paper PMC12548284, “SIK2-mediated phosphorylation of GABARAPL2 facilitates autophagosome–lysosome fusion and rescues neurodegeneration in an Alzheimer’s disease model” (Translational Neurodegeneration, 2025).
Results are given in words; binding and its absence hold for the method and conditions named. For part of these data: In cells and extracts the contact can be indirect. Some results given as binding are weak or reduced against the parent protein; the word gives no strength. For part of these data: Where a sequence is shown, tags or fusion partners need not be part of it. One block for each substance: values may come before it.

Amino acid sequences for entries named in this document (tags omitted). A change or cut given only in a name is not applied to a line headed by its entry.
UniProt P60521: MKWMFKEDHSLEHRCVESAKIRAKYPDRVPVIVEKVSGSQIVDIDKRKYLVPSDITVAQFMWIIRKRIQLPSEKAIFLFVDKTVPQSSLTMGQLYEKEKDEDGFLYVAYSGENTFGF
UniProt P60520: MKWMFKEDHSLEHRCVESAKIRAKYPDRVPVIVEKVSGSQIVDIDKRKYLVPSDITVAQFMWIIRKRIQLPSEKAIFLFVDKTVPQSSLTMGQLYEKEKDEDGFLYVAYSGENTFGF
UniProt Q9DCD6: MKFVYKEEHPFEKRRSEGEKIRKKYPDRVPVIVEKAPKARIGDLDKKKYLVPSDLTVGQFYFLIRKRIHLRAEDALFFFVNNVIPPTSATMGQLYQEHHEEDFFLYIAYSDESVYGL
UniProt Q60670: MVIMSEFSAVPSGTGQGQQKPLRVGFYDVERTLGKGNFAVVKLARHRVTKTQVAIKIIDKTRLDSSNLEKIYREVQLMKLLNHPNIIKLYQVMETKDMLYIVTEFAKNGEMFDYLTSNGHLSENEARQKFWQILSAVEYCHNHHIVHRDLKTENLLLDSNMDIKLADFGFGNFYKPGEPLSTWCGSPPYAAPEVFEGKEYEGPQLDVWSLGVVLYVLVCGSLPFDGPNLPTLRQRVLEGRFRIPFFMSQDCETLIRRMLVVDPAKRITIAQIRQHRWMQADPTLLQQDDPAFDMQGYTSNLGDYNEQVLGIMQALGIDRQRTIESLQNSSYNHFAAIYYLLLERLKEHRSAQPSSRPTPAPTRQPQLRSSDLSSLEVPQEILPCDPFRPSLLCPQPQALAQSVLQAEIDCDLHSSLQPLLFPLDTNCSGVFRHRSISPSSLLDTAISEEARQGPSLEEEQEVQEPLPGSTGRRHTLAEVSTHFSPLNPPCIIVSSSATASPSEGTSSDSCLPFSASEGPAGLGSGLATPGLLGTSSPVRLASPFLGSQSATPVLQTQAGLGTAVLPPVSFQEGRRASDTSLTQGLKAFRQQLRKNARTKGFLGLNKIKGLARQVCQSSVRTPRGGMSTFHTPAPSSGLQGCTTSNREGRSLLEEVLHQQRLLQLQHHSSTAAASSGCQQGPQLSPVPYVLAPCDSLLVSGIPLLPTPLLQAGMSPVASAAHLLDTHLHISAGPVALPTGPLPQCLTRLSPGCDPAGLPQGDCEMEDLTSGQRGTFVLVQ

Assays:
[1] = molecular target: SIK2-flag (salt-inducible kinase 2, flag-tagged) (UniProt Q8CFH6); test: co-IP; N2a cells overexpressing SIK2-flag; lysates in RIPA buffer incubated with anti-flag magnetic beads; Western blot for ATG8 family members
[2] = molecular target: Salt-inducible kinase 2 (SIK2) (mouse (endogenous in N2a and in hippocampal tissue)) (UniProt Q8CFH6); test: co-IP; mouse hippocampal tissue lysate in RIPA buffer, pre-cleared with Protein A/G beads; anti-SIK2- or control IgG-conjugated beads overnight
SIK2(1–290)-His = molecular target: T1, SIK2(1–290)-His (UniProt Q8CFH6); test: co-IP; SIK2 deletion mutants with His tag, precipitated with anti-His antibodies; blot for GABARAPL2
T1 sequence: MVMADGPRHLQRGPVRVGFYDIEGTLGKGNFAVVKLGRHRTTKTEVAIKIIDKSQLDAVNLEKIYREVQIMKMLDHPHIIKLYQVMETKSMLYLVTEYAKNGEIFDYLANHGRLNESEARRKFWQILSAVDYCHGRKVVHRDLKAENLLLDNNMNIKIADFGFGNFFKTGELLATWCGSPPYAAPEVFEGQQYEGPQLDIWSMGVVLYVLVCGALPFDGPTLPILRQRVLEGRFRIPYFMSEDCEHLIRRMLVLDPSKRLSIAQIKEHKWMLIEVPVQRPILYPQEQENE

SIK2(1–550)-His = molecular target: T2, SIK2(1–550)-His (UniProt Q8CFH6); test: as above
T2 sequence: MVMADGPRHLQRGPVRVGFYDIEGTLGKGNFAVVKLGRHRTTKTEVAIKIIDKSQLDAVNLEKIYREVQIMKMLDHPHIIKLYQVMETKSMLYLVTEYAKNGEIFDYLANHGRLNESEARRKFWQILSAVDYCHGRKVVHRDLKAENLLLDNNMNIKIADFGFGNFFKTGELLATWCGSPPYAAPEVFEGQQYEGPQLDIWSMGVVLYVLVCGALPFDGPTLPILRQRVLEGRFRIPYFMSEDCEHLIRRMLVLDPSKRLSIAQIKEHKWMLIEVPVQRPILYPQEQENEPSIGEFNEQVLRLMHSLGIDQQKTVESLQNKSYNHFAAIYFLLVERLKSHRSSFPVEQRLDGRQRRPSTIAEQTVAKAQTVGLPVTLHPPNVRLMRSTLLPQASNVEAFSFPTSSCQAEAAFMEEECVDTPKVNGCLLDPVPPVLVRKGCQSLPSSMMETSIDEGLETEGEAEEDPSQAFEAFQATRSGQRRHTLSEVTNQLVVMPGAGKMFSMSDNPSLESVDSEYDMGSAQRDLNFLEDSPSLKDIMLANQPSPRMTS

SIK2(1–650)-His = molecular target: T3, SIK2(1–650)-His (UniProt Q8CFH6); test: as above
T3 sequence: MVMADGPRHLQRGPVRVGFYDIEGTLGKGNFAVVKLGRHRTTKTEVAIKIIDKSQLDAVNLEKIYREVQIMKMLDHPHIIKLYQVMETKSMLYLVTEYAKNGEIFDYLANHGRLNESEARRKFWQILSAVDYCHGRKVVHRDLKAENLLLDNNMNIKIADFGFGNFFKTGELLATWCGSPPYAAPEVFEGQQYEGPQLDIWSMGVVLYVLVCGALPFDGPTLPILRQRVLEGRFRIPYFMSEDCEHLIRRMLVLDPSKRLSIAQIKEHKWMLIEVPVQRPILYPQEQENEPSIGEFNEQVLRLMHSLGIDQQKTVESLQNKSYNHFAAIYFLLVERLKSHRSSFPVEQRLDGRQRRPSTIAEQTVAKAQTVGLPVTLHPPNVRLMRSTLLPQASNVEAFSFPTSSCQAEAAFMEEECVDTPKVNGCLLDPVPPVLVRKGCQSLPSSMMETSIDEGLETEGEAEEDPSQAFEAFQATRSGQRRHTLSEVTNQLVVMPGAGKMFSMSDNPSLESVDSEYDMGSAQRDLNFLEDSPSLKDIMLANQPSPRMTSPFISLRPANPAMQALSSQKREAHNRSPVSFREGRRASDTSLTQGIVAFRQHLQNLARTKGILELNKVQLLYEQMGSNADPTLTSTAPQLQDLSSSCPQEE

SIK2(1–931)-His = SIK2(1–931)-His (UniProt Q8CFH6); test: as above
[3] = molecular target: GABA type A receptor-associated protein-like 2 (GABARAPL2) (mouse (endogenous in N2a and in hippocampal tissue)) (UniProt P60521); test: co-IP; 'in either experimental system': the system other than hippocampal tissue, not given
[4] = molecular target: GABA type A receptor-associated protein-like 2 (GABARAPL2) (mouse (endogenous in N2a and in hippocampal tissue)) (UniProt P60521); test: co-IP; mouse hippocampal tissue lysate in RIPA buffer, pre-cleared with Protein A/G beads; anti-SIK2- or control IgG-conjugated beads overnight
flag-tagged GABARAPL2 = flag-tagged GABARAPL2 (UniProt P60521); test: co-IP; reciprocal: N2a cells overexpressing flag-tagged ATG8 family members; anti-flag beads; Western blot for SIK2
GST-GABARAPL2 = molecular target: T4, GST-GABARAPL2 (UniProt P60520 1-117); test: pull-down; competitive GST pull-down: GST-GABARAPL2 on glutathione-conjugated Sepharose beads, SIK2 protein in solution, LIR peptide at 0, 5, 10, 20, 40 μmol/L; immunoblot; both purified
T4 construct: GABARAPL2 of the bought GST fusion protein; source: bought: Proteintech (Ag1155)

binding [1]: binds
binding [2]: binds
Substance: GABA type A receptor-associated protein-like 2 (GABARAPL2) (from UniProt P60521 1-117)

binding [1]: binds
Substance: GABARAP (from UniProt Q9DCD6 1-117)

binding (SIK2(1–290)-His): no binding
binding (SIK2(1–550)-His): binds
binding (SIK2(1–650)-His): binds
binding (SIK2(1–931)-His): binds
Substance: GABARAPL2 (in the Co-IP with the SIK2 deletion mutants) (from UniProt P60521 1-117)

binding [1]: binds
Substance: LC3A (from UniProt Q91VR7 1-121)

binding [3]: no binding
binding [4]: no binding
Substance: SIK1 (from UniProt Q60670 1-779) (enzyme)

binding (flag-tagged GABARAPL2): binds
Substance: Salt-inducible kinase 2 (SIK2) (from UniProt Q8CFH6 1-931) (enzyme)

binding (GST-GABARAPL2): binds
Substance: full-length SIK2 protein (expressed in vitro) (from UniProt Q8CFH6 1-931) (enzyme)
